According to patent EP4628512A1 (Innovent Biologics (Suzhou) Co., Ltd., dated 2025):

Experiments:
human VEGF165 (R&D) = target: T1, human VEGF165 (R&D) (human, UniProt P15692-4 27-191); assay: SPR (Biacore T200), CM5 chip, 1:1 binding model
T1 construct: also called VEGFA; human VEGFA
T1 sequence (looked up): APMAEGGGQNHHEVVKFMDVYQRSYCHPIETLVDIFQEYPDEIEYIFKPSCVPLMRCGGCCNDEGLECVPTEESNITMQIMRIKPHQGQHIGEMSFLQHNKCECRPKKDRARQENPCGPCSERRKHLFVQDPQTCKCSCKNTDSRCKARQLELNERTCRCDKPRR

[1] = target: T2, human Ang2 (Beijing Sino Biological) (human, UniProt O15123 19-496, limits assumed); assay: SPR (Biacore T200), CM5 chip, bivalent binding, 1:1 binding model
T2 construct: Antigen of the BLI and SPR experiments; also called angiopoietin 2; ANGPT2
T2 sequence (looked up): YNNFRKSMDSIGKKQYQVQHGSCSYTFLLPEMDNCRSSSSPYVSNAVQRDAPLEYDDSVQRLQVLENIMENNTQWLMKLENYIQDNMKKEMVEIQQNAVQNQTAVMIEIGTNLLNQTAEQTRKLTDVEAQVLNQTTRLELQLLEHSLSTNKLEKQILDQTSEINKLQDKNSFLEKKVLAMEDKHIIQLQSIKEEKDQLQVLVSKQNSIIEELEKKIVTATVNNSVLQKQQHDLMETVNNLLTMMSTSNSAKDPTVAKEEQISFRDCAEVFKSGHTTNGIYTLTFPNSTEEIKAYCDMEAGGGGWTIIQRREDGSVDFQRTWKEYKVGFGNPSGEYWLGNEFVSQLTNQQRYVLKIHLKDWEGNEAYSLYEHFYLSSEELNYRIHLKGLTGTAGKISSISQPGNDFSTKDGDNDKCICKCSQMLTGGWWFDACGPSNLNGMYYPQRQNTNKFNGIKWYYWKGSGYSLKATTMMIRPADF

human VEGFC (R&D) = target: T3, human VEGFC (R&D) (human, UniProt P49767 103-227); assay: as above
T3 construct: also called hVEGFC; recombinant human VEGFC protein
T3 sequence (looked up): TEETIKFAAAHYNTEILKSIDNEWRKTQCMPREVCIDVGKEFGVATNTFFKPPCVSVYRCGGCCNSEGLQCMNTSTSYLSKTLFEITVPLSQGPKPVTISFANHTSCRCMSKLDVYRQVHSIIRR

- koff (human VEGF165 (R&D)): 4.94e-05 s⁻¹
- kon (human VEGF165 (R&D)): 5.34e+07 M⁻¹ s⁻¹
- Kd [1]: 0.0556 nM
- koff [1]: 3.3e-05 s⁻¹
- kon [1]: 594000 M⁻¹ s⁻¹
- Kd (human VEGFC (R&D)): < 0.0178 nM
- koff (human VEGFC (R&D)): < 1e-05 s⁻¹
- kon (human VEGFC (R&D)): 562000 M⁻¹ s⁻¹
B1: IAR044-019 (Fc fusion)
chain: EVQLLESGGGLVQPGGSLRLSCAASGFALDYYAIGWFRQAPGKGLEGVSCISSGEGSTYYADSVKGRFTISRDNSKNTVYLQMNSLRAEDTAVYYCATDSRGDDVACEGLRRNEYDYWGQGTLVTVSSGRPGSGRPGSSDTGRPFVEMYSEIPEIIHMTEGRELVIPCRVTSPNITVTLKKFPLDTLIPDGKRIIWDSRKGFIISNATYKEIGLLTCEATVNGHLYKTNYLTHRQTNTIIDVVLSPSHGIELSVGEKLVLNCTARTELNVGIDFNWEYPSSKHQHKKLVNRDLKTQSGSEMKKFLSTLTIDGVTRSDQGLYTCAASSGLMTKKNSTFVRVHEK[gap - human IgG1 Fc]RPGSGRPGSEVQLVESGGGLVQPGGSLRLSCAASGSSFSPYAMGWYRQAPGKQRELVSATSEGGFTLYADSVKGRFTISRDNSKNTVYLQMNSLRAEDTAVYYCYMHWRGSDPENYWGQGTQVTVSS
notes: Single polypeptide: anti-Ang2 VHH, linker, VEGFA mini-Trap (VEGFR1 domain 2 + VEGFR2 domain 3), Fc, linker, anti-VEGFC VHH; also called anti-VEGFA/VEGFC/Ang2 multi-specific fusion protein
